Experimental data: PubChem BioAssay AID488969 (Vanderbilt High Throughput Screening Facility, 2010)
Over roughly 110,000 compounds, “z-score” has its median near -0.1; the highest 2% begin near 2. This is one part of the list.

Target: Metabotropic glutamate receptor 8 (Rattus norvegicus) (UniProt P70579)
Assay: mGluR8 Gi/Go-coupled signaling modulation – cell-based, rat, thallium flux, HTS, primary screen (AID 488969)
Details: HEK293 rat mGluR8, GIRK (G protein-gated inwardly rectifying potassium channel) thallium flux, FluoZin2; at 10 µM; stronger effect = higher value; submaximal glutamate (EC20) added with thallium

UniProt P70579, sequence (P70579 whole entry, looked up): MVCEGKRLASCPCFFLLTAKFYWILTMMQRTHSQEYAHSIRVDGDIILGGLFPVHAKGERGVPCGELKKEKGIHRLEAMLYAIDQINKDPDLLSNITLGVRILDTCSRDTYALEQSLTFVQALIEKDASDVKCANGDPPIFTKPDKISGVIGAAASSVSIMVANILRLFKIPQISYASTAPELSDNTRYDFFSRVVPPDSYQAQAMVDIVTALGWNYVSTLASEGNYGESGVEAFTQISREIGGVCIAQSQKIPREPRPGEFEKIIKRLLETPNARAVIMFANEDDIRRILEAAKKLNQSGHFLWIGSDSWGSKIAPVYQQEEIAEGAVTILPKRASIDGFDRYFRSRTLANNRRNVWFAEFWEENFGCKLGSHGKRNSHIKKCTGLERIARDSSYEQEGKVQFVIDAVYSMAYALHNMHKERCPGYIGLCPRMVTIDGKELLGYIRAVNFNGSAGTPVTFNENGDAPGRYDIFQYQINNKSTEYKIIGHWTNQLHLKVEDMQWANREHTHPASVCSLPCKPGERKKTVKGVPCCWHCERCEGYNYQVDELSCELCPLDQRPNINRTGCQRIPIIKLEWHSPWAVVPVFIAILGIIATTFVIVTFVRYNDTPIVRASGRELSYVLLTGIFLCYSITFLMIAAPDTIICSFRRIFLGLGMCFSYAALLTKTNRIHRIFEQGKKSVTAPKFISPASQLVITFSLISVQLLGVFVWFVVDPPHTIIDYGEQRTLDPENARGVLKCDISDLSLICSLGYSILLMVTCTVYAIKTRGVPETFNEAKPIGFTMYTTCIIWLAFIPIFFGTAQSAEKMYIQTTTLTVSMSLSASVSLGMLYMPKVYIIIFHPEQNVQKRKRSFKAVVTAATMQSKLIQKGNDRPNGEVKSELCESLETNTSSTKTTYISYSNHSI

| SMILES | z-score |
| --- | --- |
| Clc1ccc(C2=C3CCCCn4c(-c5ccccc5)c[n+](c43)C2)cc1 | 0.498 |
| COC(=O)[C@H](CC(C)C)NC(=O)N1CCN(c2cccc(C(F)(F)F)c2)CC1 | 0.055 |
| Cc1cc(C(=O)CSc2ncccn2)c(C)n1-c1cccc(F)c1 | -0.391 |
| COc1ccc(CN/C=C2\CCCCC2=O)cc1 | -0.157 |
| O=C1CC(C(=O)NC2CCCCC2)C(c2ccccc2)O1 (stereo unspecified) | -0.503 |
| Cc1cc(OCC(=O)Nc2ccncc2)cc(C)c1Br | -0.426 |
| COC(=O)C(C)NC(=O)c1ccc(C(C)(C)C)cc1 (stereo unspecified) | -0.275 |
| Cc1ccc(S(=O)(=O)N2C=CC(C(F)(F)F)=NCC2)cc1 | -0.16 |
| Cn1c(=O)c(-c2ccccc2N)nc2ccccc21 | -0.598 |
| Oc1ccccc1Oc1c(F)c(F)nc(N2CCCC2)c1F | -0.2 |
| COc1ccccc1-n1c(CNC(=O)c2ccc(S(=O)(=O)N3CCOCC3)cc2)n[nH]c1=S | 0.224 |
| O=C(COc1ccc(F)cc1)Nc1nccs1 | -0.265 |
| CN(C)C(=O)NCc1ccc(S(N)(=O)=O)cc1 | 0.693 |
| CC(NC(=O)C(=O)NCCC1=CCCCC1)c1ccccc1 (stereo unspecified) | -0.313 |
| CSc1nnc2c(n1)c(C)nn2-c1ccc(C)cc1 | -0.274 |
| N#Cc1c(-c2ccccc2)nc(SCC(=O)N(c2ccccc2)c2ccccc2)[nH]c1=O | -0.79 |
| O=C(Cn1cnc2c(cnn2-c2ccc(F)cc2)c1=O)NCc1ccco1 | -0.724 |
| Cc1cc(C(C)(C)C)oc1C(=O)N(CC(=O)NC1CCCC1)Cc1ccccc1 | -0.175 |
| CCOC(=O)C1=C(N)N2C(=O)C(C)SC2=C(C(=O)OC)C1c1ccccc1OC (stereo unspecified) | -0.995 |

| SMILES | z-score |
| --- | --- |
| O=S(=O)(c1ccc(Cl)c(Cl)c1)c1snnc1-c1ccccc1 | 0.0864 |
| CCOC(=O)C1(CC)NC(c2ccco2)C2C(=O)N(C)C(=O)C21 (stereo unspecified) | 0.134 |
| C=CCOc1c(Br)cc(CNc2ccc(NC(=O)C(C)C)cc2)cc1OCC | -0.102 |
| O=C(NC1CCCC1)c1cc(Cl)ccc1[N+](=O)[O-] | 0.0599 |
| CC(C)COc1ccc(S(=O)(=O)NNC(=O)c2cc3ccccc3o2)cc1 | -0.0828 |
| C#CC(C)(CC)NC(=O)Cn1nnc(-c2ccc(S(C)(=O)=O)cc2)n1 (stereo unspecified) | 0.167 |
| Cc1ccc(C(=O)Nc2ccc3c(c2)OCO3)cc1S(=O)(=O)N1CCCCC1 | -0.384 |
| COc1ccc(-c2cn(-c3ccc(OC)cc3)c(=S)[nH]2)cc1 | 0.277 |
| Cc1ccc2occ(C3N[C@H](C(=O)O)CS3)c(=O)c2c1 (stereo partly specified) | -1.32 |
| O=C(CCn1cnc(-c2ccccc2)c1-c1ccccc1)N/N=C/c1ccccc1O | -0.833 |
| CCC(CC)C1C(C#N)=C(N)Oc2cc(C)oc(=O)c21 (stereo unspecified) | -2.1 |
| CCOC(=O)C1CCN(c2c(N(C)Cc3ccco3)c(=O)c2=O)CC1 | 0.436 |
| CN(C)S(=O)(=O)N(CC(=O)N1CCOCC1)c1ccccc1 | 0.815 |
| CN1CC(=O)N(CC(=O)Nc2ccc(N(C)C)cc2)c2ccccc2C1=O | 0.128 |
| Cc1ccc(C(=O)COC(=O)c2c(C)cc(=O)oc2C)cc1[N+](=O)[O-] | -0.113 |
| CCc1c(O)cc(=O)n(-c2ccccc2)c1-c1ccccc1 | -0.775 |
| Cc1noc(C)c1C(=O)OCC(=O)NC(c1ccccc1)c1ccccc1 | -0.347 |
| COc1ccc(CNc2nc(C)c([N+](=O)[O-])c(C)c2C#N)cc1 | 0.0989 |
| COc1ccc(C2C(C(=O)N3CCCCC3)CC(=O)N2c2ccc(OC)cc2)cc1 (stereo unspecified) | -0.175 |

| SMILES | z-score |
| --- | --- |
| O=C(c1c(F)c(F)c(F)c(F)c1F)N1CCc2ccccc21 | -0.447 |
| C=CCNC(=O)C1CC(=O)N(c2ccc(OCC(=O)NCc3ccccc3)cc2)C1 (stereo unspecified) | -0.104 |
| CCC(=O)c1ccccc1OCCN1C(=O)NC(C)(C)C1=O | -0.129 |
| CNC(=O)CSc1nnc(-c2ccco2)n1-c1ccc(C)cc1 | 0.0101 |
| CCOc1ccccc1NC(=O)C1CC(=O)n2ncnc2N1 (stereo unspecified) | -0.15 |
| CCn1c(CCn2ccnc2C)n[nH]c1=S | 0.253 |
| Cc1c(C(=O)O)c(-c2ccccc2)nn1-c1ccccc1 | 0.22 |
| CCCNNC(=O)C(O)(c1ccccc1)c1ccccc1 | 0.449 |
| COc1ccc(C2N(C(=O)c3ccccc3)CCN2C(=O)c2ccccc2)cc1 | 0.273 |
| COC(=O)C1(S(=O)(=O)C2(C(=O)OC)CCCC2)CCCC1 | 0.165 |
| COc1ccc(C2(C(=O)NCCN3CCOCC3)CCOCC2)cc1 | 0.206 |
| COc1ccc(C2=NOC3(CC(=O)N(c4ccc(C)cc4)C3=O)C2)cc1 (stereo unspecified) | -0.444 |
| COc1ccc(NC(=O)CN2C(=O)C(C)Oc3ccccc32)cc1 (stereo unspecified) | -0.12 |
| O=C(COc1ccc(F)cc1)Nc1nnc(-c2ccncc2)s1 | -0.283 |
| O=C(NNC1=NCCC1)c1ccc(Br)cc1 | -0.0333 |
| CC(=O)Nc1ccc(S(=O)(=O)NCCSCc2ccccc2Cl)cc1 | -0.178 |
| C=CCSc1nc(N)c(C(=O)Nc2ccccc2C)cc1C(N)=O | -0.41 |
| N=c1sccn1CC(=O)Nc1ccccc1Cc1ccccc1 | 0.385 |
